# Laboratory results from the supplement of paper PMC8728848.
# This is one part of the list.
# Legend:
# Test in all cases: glycan array binding signal (z-score within array); higher = stronger binding
# Settings in all cases: glycan notation: IUPAC condensed, linker removed
# [1] = molecular target: Gal(a1-3)Gal(b1-4)GlcNAc(b1-2)Man
# How it was run: (§1)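 The Consortium for Functional Glycomics database supplied 3228 glycan arrays, of which those lacking an available protein sequence were dropped. The binding signal, a within-array Z-score, was averaged across arrays of the same protein sequence and across linkers. Negative scores can be read as non-binding.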
# [2] = molecular target: Gal(a1-3)Gal(b1-4)GlcNAc(b1-2)Man(a1-3)[Gal(a1-3)Gal(b1-4)GlcNAc(b1-2)Man(a1-6)]Man(b1-4)GlcNAc(b1-4)GlcNAc
# How it was run: as §1
# [3] = molecular target: Gal(a1-3)Gal(b1-4)GlcNAc(b1-3)GalNAc
# How it was run: as §1
# [4] = molecular target: Gal(a1-3)Gal(b1-4)GlcNAc(b1-6)GalNAc
# How it was run: as §1
# [5] = molecular target: Gal(a1-3)Gal(b1-4)[Fuc(a1-3)]GlcNAc
# How it was run: as §1
# [6] = molecular target: Gal(a1-3)Gal(b1-4)[Fuc(a1-3)]GlcNAc(b1-2)Man(a1-3)[Gal(a1-3)Gal(b1-4)[Fuc(a1-3)]GlcNAc(b1-2)Man(a1-6)]Man(b1-4)GlcNAc(b1-4)GlcNAc
# How it was run: as §1
# [7] = molecular target: Gal(a1-3)GalNAc
# How it was run: as §1
# [8] = molecular target: Gal(a1-3)[Gal(a1-4)]Gal(b1-4)GlcNAc
# How it was run: as §1
# [9] = molecular target: Gal(a1-4)Gal(b1-3)GlcNAc(b1-2)Man(a1-3)[Gal(a1-4)Gal(b1-3)GlcNAc(b1-2)Man(a1-6)]Man(b1-4)GlcNAc(b1-4)GlcNAc
# How it was run: as §1
# [10] = molecular target: Gal(a1-4)Gal(b1-4)Glc
# How it was run: as §1
# [11] = molecular target: Gal(a1-4)Gal(b1-4)GlcNAc
# How it was run: as §1
# [12] = molecular target: Gal(a1-4)Gal(b1-4)GlcNAc(b1-2)Man(a1-3)[Gal(a1-4)Gal(b1-4)GlcNAc(b1-2)Man(a1-6)]Man(b1-4)GlcNAc(b1-4)GlcNAc
# How it was run: as §1
# [13] = molecular target: Gal(a1-4)Gal(b1-4)GlcNAc(b1-3)Gal(b1-4)Glc
# How it was run: as §1
# [14] = molecular target: Gal(a1-4)GlcNAc
# How it was run: as §1
# [15] = molecular target: Gal(a1-6)Glc
# How it was run: as §1
# [16] = molecular target: Gal(b1-2)Gal
# How it was run: as §1
# [17] = molecular target: Gal(b1-3)Gal
# How it was run: as §1
# [18] = molecular target: Gal(b1-3)Gal(b1-4)GlcNAc
# How it was run: as §1
# [19] = molecular target: Gal(b1-3)GalNAc
# How it was run: as §1
# [20] = molecular target: Gal(b1-3)GalNAc(a1-3)[Fuc(a1-2)]Gal(b1-4)Glc
# How it was run: as §1
# [21] = molecular target: Gal(b1-3)GalNAc(a1-3)[Fuc(a1-2)]Gal(b1-4)GlcNAc
# How it was run: as §1
# [22] = molecular target: Gal(b1-3)GalNAc(b1-3)Gal
# How it was run: as §1
# [23] = molecular target: Gal(b1-3)GalNAc(b1-3)Gal(a1-4)Gal(b1-4)Glc
# How it was run: as §1
# [24] = molecular target: Gal(b1-3)GalNAc(b1-4)Gal(b1-4)Glc
# How it was run: as §1
# [25] = molecular target: Gal(b1-3)GalNAc(b1-4)[Neu5Ac(a2-3)]Gal(b1-4)Glc
# How it was run: as §1
# [26] = molecular target: Gal(b1-3)GlcNAc
# How it was run: as §1
# [27] = molecular target: Gal(b1-3)GlcNAc(a1-3)Gal(b1-4)GlcNAc
# How it was run: as §1
# [28] = molecular target: Gal(b1-3)GlcNAc(a1-6)Gal(b1-4)GlcNAc
# How it was run: as §1
# [29] = molecular target: Gal(b1-3)GlcNAc(b1-2)Man
# How it was run: as §1
# [30] = molecular target: Gal(b1-3)GlcNAc(b1-2)Man(a1-3)[Gal(b1-3)GlcNAc(b1-2)Man(a1-6)]Man(b1-4)GlcNAc(b1-4)GlcNAc
# How it was run: as §1
# [31] = molecular target: Gal(b1-3)GlcNAc(b1-2)Man(a1-3)[Gal(b1-3)GlcNAc(b1-2)Man(a1-6)]Man(b1-4)GlcNAc(b1-4)[Fuc(a1-6)]GlcNAc
# How it was run: as §1
# [32] = molecular target: Gal(b1-3)GlcNAc(b1-2)Man(a1-3)[GlcNAc(b1-4)][Gal(b1-3)GlcNAc(b1-2)Man(a1-6)]Man(b1-4)GlcNAc(b1-4)GlcNAc
# How it was run: as §1
# [33] = molecular target: Gal(b1-3)GlcNAc(b1-2)[Gal(b1-3)GlcNAc(b1-6)]Man(a1-6)[Gal(b1-3)GlcNAc(b1-2)Man(a1-3)]Man(b1-4)GlcNAc(b1-4)GlcNAc
# How it was run: as §1
# [34] = molecular target: Gal(b1-3)GlcNAc(b1-3)Gal(b1-3)GlcNAc
# How it was run: as §1
# [35] = molecular target: Gal(b1-3)GlcNAc(b1-3)Gal(b1-4)Glc
# How it was run: as §1
# [36] = molecular target: Gal(b1-3)GlcNAc(b1-3)Gal(b1-4)GlcNAc
# How it was run: as §1
# [37] = molecular target: Gal(b1-3)GlcNAc(b1-3)Gal(b1-4)GlcNAc(b1-2)Man(a1-3)[Gal(b1-3)GlcNAc(b1-3)Gal(b1-4)GlcNAc(b1-2)Man(a1-6)]Man(b1-4)GlcNAc(b1-4)GlcNAc
# How it was run: as §1
# [38] = molecular target: Gal(b1-3)GlcNAc(b1-3)Gal(b1-4)GlcNAc(b1-2)[Gal(b1-3)GlcNAc(b1-3)Gal(b1-4)GlcNAc(b1-6)]Man(a1-6)[Gal(b1-3)GlcNAc(b1-3)Gal(b1-4)GlcNAc(b1-2)Man(a1-3)]Man(b1-4)GlcNAc(b1-4)[Fuc(a1-6)]GlcNAc
# How it was run: as §1
# [39] = molecular target: Gal(b1-3)GlcNAc(b1-3)Gal(b1-4)GlcNAc(b1-3)Gal(b1-4)GlcNAc(b1-2)[Gal(b1-3)GlcNAc(b1-3)Gal(b1-4)GlcNAc(b1-3)Gal(b1-4)GlcNAc(b1-6)]Man(a1-6)[Gal(b1-3)GlcNAc(b1-3)Gal(b1-4)GlcNAc(b1-3)Gal(b1-4)GlcNAc(b1-2)Man(a1-3)]Man(b1-4)GlcNAc(b1-4)[Fuc(a1-6)]GlcNAc
# How it was run: as §1
# [40] = molecular target: Gal(b1-3)GlcNAc(b1-3)Gal(b1-4)GlcNAc(b1-6)[Gal(b1-3)GlcNAc(b1-3)]Gal(b1-4)Glc
# How it was run: as §1
# [41] = molecular target: Gal(b1-3)GlcNAc(b1-3)Gal(b1-4)[Fuc(a1-3)]GlcNAc
# How it was run: as §1
# [42] = molecular target: Gal(b1-3)GlcNAc(b1-3)Gal(b1-4)[Fuc(a1-3)]GlcNAc(b1-6)[Gal(b1-3)GlcNAc(b1-3)]Gal(b1-4)Glc
# How it was run: as §1
# [43] = molecular target: Gal(b1-3)GlcNAc(b1-3)GalNAc
# How it was run: as §1
# [44] = molecular target: Gal(b1-3)GlcNAc(b1-6)Gal(b1-4)GlcNAc
# How it was run: as §1
# [45] = molecular target: Gal(b1-3)GlcNAc(b1-6)GalNAc
# How it was run: as §1
binder,measurement,setting,value
SBD-G4S3-SBD (protein) MASIPSSASVQLDSYNYDGSTFSGKIYVKNIAYSKKVTVVYADGSDNWNNNGNIIAASFSGPISGSNYEYWTFSASVKGIKEFYIKYEVSGKTYYDNNNSANYQVSTGGGGSGGGGSGGGGSEFASIPSSASVQLDSYNYDGSTFSGKIYVKNIAYSKKVTVVYADGSDNWNNNGNIIAASFSGPISGSNYEYWTFSASVKGIKEFYIKYEVSGKTYYDNNNSANYQVST,glycan array binding signal (z-score),[1],-0.248
same,glycan array binding signal (z-score),[2],0.877
same,glycan array binding signal (z-score),[3],-0.376
same,glycan array binding signal (z-score),[4],-0.225
same,glycan array binding signal (z-score),[5],0.668
same,glycan array binding signal (z-score),[6],0.036
same,glycan array binding signal (z-score),[7],-0.407
same,glycan array binding signal (z-score),[8],2.38
same,glycan array binding signal (z-score),[9],0.182
same,glycan array binding signal (z-score),[10],-0.21
same,glycan array binding signal (z-score),[11],-0.333
same,glycan array binding signal (z-score),[12],-0.315
same,glycan array binding signal (z-score),[13],-0.119
same,glycan array binding signal (z-score),[14],-0.387
same,glycan array binding signal (z-score),[15],-0.363
same,glycan array binding signal (z-score),[16],-0.281
same,glycan array binding signal (z-score),[17],-0.385
same,glycan array binding signal (z-score),[18],0.08
same,glycan array binding signal (z-score),[19],-0.33
same,glycan array binding signal (z-score),[20],-0.39
same,glycan array binding signal (z-score),[21],-0.391
same,glycan array binding signal (z-score),[22],-0.336
same,glycan array binding signal (z-score),[23],-0.324
same,glycan array binding signal (z-score),[24],-0.356
same,glycan array binding signal (z-score),[25],-0.263
same,glycan array binding signal (z-score),[26],0.511
same,glycan array binding signal (z-score),[27],-0.366
same,glycan array binding signal (z-score),[28],-0.239
same,glycan array binding signal (z-score),[29],-0.376
same,glycan array binding signal (z-score),[30],4.15
same,glycan array binding signal (z-score),[31],2.85
same,glycan array binding signal (z-score),[32],0.968
same,glycan array binding signal (z-score),[33],0.251
same,glycan array binding signal (z-score),[34],-0.246
same,glycan array binding signal (z-score),[35],-0.195
same,glycan array binding signal (z-score),[36],-0.361
same,glycan array binding signal (z-score),[37],-0.117
same,glycan array binding signal (z-score),[38],2.85
same,glycan array binding signal (z-score),[39],0.953
same,glycan array binding signal (z-score),[40],-0.42
same,glycan array binding signal (z-score),[41],-0.446
same,glycan array binding signal (z-score),[42],-0.428
same,glycan array binding signal (z-score),[43],2.5
same,glycan array binding signal (z-score),[44],-0.367
same,glycan array binding signal (z-score),[45],-0.069
